Laboratory results from PMC4336329 (PLoS ONE, 2015).
Out of some 310,000 compounds screened, about 14,000 (4.5%) showed an effect of 50% or more. Effects have a minus sign here. This is one part of the list.

biological target: human ether-à-go-go-related gene (hERG) potassium channel (human, UniProt Q12809); assay: primary screen, population patch clamp on CHO cells stably expressing hERG
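Further: peak tail current of the secondary pulse compared with the same well before compound.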

Sequence of human ether-à-go-go-related gene (hERG) potassium channel (Q12809 whole entry, looked up): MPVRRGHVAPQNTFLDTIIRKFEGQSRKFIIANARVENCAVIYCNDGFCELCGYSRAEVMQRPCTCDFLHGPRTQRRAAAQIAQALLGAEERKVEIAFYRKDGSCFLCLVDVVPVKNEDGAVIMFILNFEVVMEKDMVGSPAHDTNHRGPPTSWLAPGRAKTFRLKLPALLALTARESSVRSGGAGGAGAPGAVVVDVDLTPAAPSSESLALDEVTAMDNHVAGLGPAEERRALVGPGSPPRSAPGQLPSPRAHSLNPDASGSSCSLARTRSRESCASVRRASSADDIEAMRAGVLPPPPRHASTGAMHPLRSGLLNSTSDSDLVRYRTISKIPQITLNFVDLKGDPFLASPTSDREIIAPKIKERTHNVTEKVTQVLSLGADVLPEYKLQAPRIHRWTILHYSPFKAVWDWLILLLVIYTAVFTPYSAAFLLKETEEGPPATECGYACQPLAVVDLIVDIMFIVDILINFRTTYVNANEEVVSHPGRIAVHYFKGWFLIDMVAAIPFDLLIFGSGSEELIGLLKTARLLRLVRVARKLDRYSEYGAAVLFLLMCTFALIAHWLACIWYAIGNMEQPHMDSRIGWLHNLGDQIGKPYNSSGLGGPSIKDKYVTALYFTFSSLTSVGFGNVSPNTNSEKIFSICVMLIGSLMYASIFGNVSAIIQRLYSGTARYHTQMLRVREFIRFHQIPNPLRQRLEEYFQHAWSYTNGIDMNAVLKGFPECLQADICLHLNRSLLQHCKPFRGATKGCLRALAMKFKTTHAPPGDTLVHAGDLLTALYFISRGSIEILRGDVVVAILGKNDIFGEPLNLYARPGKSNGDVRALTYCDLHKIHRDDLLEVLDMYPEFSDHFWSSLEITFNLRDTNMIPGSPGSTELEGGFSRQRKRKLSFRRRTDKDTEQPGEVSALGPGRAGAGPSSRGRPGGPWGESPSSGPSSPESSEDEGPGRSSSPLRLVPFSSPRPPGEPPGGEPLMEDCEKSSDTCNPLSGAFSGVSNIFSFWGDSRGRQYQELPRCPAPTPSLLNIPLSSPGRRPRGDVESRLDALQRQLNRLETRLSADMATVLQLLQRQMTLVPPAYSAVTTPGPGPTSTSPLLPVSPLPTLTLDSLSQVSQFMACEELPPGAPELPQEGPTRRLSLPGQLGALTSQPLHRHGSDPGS

| Structure (SMILES) | hERG current change (%, negative = inhibition) at 10uM |
| --- | --- |
| COc1ccc(C2C=C(c3ccc(C)c(C)c3)Nc3ncnn32)c(OC)c1OC (centres unmarked) | 3.18% |
| C/C(=N\Nc1nc2ccccc2[nH]1)c1ccc(Cl)s1 | -4.3% |
| Cc1cc(CN(C)Cc2ccc(OCC(O)CN(C)Cc3ccccc3)cc2)on1 (centres unmarked) | -4.84% |
| Cn1c(N2CCCC2)nc2c1c(=O)[nH]c(=O)n2C | 10.8% |
| COc1ccc(NC(=O)c2ccc(S(=O)(=O)N(C)C)cc2)cc1 | 4.19% |
| CC1CCN(S(=O)(=O)c2ccc(C(=O)Nc3ccccc3-c3nc4ccccc4[nH]3)cc2)CC1 | 9.5% |
| O=C1CSC(c2ccc(Cl)cc2)N1c1cccnc1 (centres unmarked) | 10.6% |
| CCOc1cc(C2C(C(=O)c3ccco3)=C(O)C(=O)N2Cc2ccccc2)ccc1O (centres unmarked) | 25.8% |
| CC(=O)/C(N=Nc1ccc2c(c1)OCCO2)=C(\C)O | 18.1% |
| COc1ccc(-n2nc(C(=O)NCC(=O)N3CCN(c4ccc(F)cc4)CC3)c3ccccc3c2=O)c(OC)c1 | -42.8% |
| COc1cccc(NC(=O)c2ccccc2-c2nc(-c3cccc(C)c3)no2)c1 | 0.852% |
| CCCn1nnc(NC(=O)c2ccc([N+](=O)[O-])cc2Cl)n1 | -7.86% |
| CCc1ccc2nc(/N=C(\N)NC(=O)c3ccccc3)nc(C)c2c1 | 11.8% |
| Cc1ncc(CN2CCN(CCC(C)C)C(CCO)C2)s1 (centres unmarked) | -20.1% |
| O=C(Nc1ccc(Oc2cccc3ccccc23)cc1)c1ccco1 | 6.21% |
| CCN(C(=O)COC(=O)CSc1cc(C)c2ccccc2n1)c1ccccc1 | -6.49% |
| Cc1nn(C)c(C)c1NS(=O)(=O)c1ccc(N2CCCC2=O)cc1 | 21.5% |
| CC(=O)Oc1ccc2oc3c(c2c1)C(=O)CCC3 | -5.26% |
| CC(=O)N1CCN(S(=O)(=O)c2ccc(S(=O)(=O)NC3CCCCC3)cc2)CC1 | 9.1% |
| Cc1nc(Cl)sc1C(=O)Nc1ccc(C(F)(F)F)cc1 | 5.32% |
| Cc1cnn(C(=O)c2ccccc2Br)c1 | -16.1% |
| O=C(CCC(=O)c1ccc(Cl)cc1)OCc1nc2ccsc2c(=O)[nH]1 | -16.7% |

| Structure (SMILES) | hERG current change (%, negative = inhibition) at 10uM |
| --- | --- |
| CCCCn1c(N)c(N(CCC(C)C)C(=O)C2CC(=O)N(c3ccc4c(c3)OCCO4)C2)c(=O)[nH]c1=O (centres unmarked) | -5.4% |
| CCCCC(CC)C(=O)Nc1cc(C(=O)NCc2ccc(C)cc2)ccc1N1CCC2(CC1)CC(c1ccccc1)=NO2 (centres unmarked) | 2.86% |
| C=CCN(c1ccccc1)S(=O)(=O)c1cccc(C(=O)Nc2nnc(SCC)s2)c1 | 6.49% |
| CCN(CC)c1ccc(/C=N/n2c(=S)[nH]nc(C)c2=O)cc1 | -4.56% |
| CSc1ccccc1-c1nnc(-c2ccc(C)cc2)o1 | 5.39% |
| Cc1ccc(/C(O)=C2/C(=O)C(=O)N(c3ccccn3)C2c2cccc([N+](=O)[O-])c2)cc1 (centres unmarked) | 10.8% |
| Cc1cccc(C(=O)NCc2nnc(SCC(=O)NC3CCCC3)n2C)c1 | 17.2% |
| CCOC(=O)C1(Cc2cccc(OC)c2)CCN(Cc2ccc(OC)c(OC)c2)CC1 | -68.8% |
| CCOC(=O)/C(C#N)=C/Nc1ccccc1OC(F)(F)F | -6.63% |
| O=S1(=O)CC2(N3CCOCC3)CCCCC21 (centres unmarked) | -8.23% |
| CC1=C(C#N)C(c2cccnc2)C2=C(CC(c3ccc(Cl)cc3)CC2=O)N1 (centres unmarked) | -27.2% |
| Cc1nn(C)cc1/C=C/C(=O)c1ccc(O)cc1 | 13.6% |
| COc1cc(C(=O)Nc2ccc(S(=O)(=O)Nc3ncccn3)cc2)c([N+](=O)[O-])cc1OC | 16.9% |
| COC(=O)[C@H]1[C@H]2C[C@@H]3c4[nH]c5cc(OC)ccc5c4CCN3C[C@H]2C[C@@H](OC(=O)c2cc(OC)c(OC)c(OC)c2)[C@@H]1OC | -12.4% |
| O=C(Nc1ccc(Cl)c(Cl)c1)Nc1ccc(Br)cc1F | 13.1% |
| C#CCCOC(=O)Nc1ccccc1 | 7.35% |
| O=C(Nc1ccc(Br)cn1)c1ccc([N+](=O)[O-])o1 | -10.7% |
| Cc1ccc(C(=O)N2CCC(C)CC2)cc1C | 8.09% |
| COc1ccc(CC(=O)N/N=C/c2ccc(-c3ccc(F)cc3)o2)cc1OC | -5.55% |
| C=CCNC(=O)/C=C/c1cccs1 | 16.4% |
| Cc1ccccc1CN1CCCC(C(=O)Nc2ccccc2Oc2cccnc2)C1 (centres unmarked) | 0.0346% |
| Cc1ccc(C)c(S(=O)(=O)N2CCN(C(=O)c3ccc(OCc4c(C)noc4C)cc3)CC2)c1 | -21.9% |
